Among all 94,000 compounds or so, about 4,000 (4.3%) were called active. The inconclusive results got no clear call from the source; some entries with a clear call stand among them for comparison. The call rests on the fitted dose curve; in most records, active means well fitted inhibition curve with a large enough effect; inconclusive means small, poorly fitted or top-dose-only effect; inactive means no such curve, though single readings can be large or run the other way. Potencies of inconclusive entries are doubtful fits and often do not repeat.
Experiment: Cytotoxic Profiling in NIH 3T3 Cell Line of Diverse Libraries Using Quantitative High-Throughput Screening; further: nearly all actives have a fitted effect of over 55% in size
Conditions: NIH 3T3 viability, CellTiter-Glo ATP luminescence, 48-72 h; series mostly up to 96.7 µM
Summary of the method: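 Cytotoxicity was measured by CellTiter-Glo ATP luminescence after 48 or 72 h compound exposure at 37 °C. Mouse NIH 3T3 fibroblasts were seeded at 400 cells/well and dosed by 23 nL pin transfer.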
Potency means the concentration at half of the fitted maximal effect; tags describe the fitted curve by direction and shape.

**Q.** With `Cc1noc(C)c1[S+](=O)([O-])N1CCC(C(=O)N2CCCC(c3nc4ncccc4[nH]3)C2)CC1` (centres undefined) as the compound, how does the Potency read?
**A.** inactive

**Q.** With `CC(=O)Nc1ccc(CN2CCN(Cc3ccccc3)C(CCO)C2)cc1` (centres undefined) as the compound, how does the Potency read?
**A.** inactive

**Q.** For `Cn1cnnc1-c1nn(C)c2c1CN(C(=O)c1n[nH]c3c1CCCCCC3)CC2`, which Potency is on record?
**A.** inactive

**Q.** With `COCc1ccc2c(c1)c(OC(C)(C)C(N)=O)nn2Cc1cccc(OC)c1` as the compound, how does the Potency read?
**A.** inconclusive: 89.1 µM [inhibitor, partial curve, poor fit]

**Q.** Which Potency does the source give for `CN1CCN(CCCNC(=O)c2c(OCC3CC3)cc(=O)n3c2CCOCC3)CC1` here?
**A.** inactive

**Q.** For `O=C1NCc2cc(-c3cc4c(ccn4Cc4ccncc4)c(N4CCOCC4)n3)ccc21`, which Potency is on record?
**A.** inconclusive: 3.16 µM [inhibitor, full curve, poor fit]

**Q.** With `Cc1ccncc1C(=O)N1CC[C@H](n2c(=O)n(C)c3cccnc32)C1` as the compound, how does the Potency read?
**A.** inactive

**Q.** Which Potency does the source give for `Cc1cc(F)ccc1NC(=O)Cn1c(C)cc2nc3n(c(=O)c21)CCCCC3` here?
**A.** inconclusive: 50.1 µM [inhibitor, partial curve, poor fit]

**Q.** For `CC(C)(C)C(=O)NC1CCN(C(=O)c2ccc(-c3ncccc3C#N)cc2)CC1`, which Potency is on record?
**A.** inconclusive: 39.8 µM [inhibitor, partial curve, poor fit]

**Q.** With `Cc1noc2c(NCc3ccccc3)cc(-c3cccnc3)nc12` as the compound, how does the Potency read?
**A.** inconclusive: 17.8 µM [inhibitor, full curve, poor fit]

**Q.** For `CCc1noc(-c2cn(C3CCN(C(=O)c4ccc(F)cc4)CC3)nn2)n1`, which Potency is on record?
**A.** inconclusive: 44.7 µM [inhibitor, partial curve, poor fit]

**Q.** For `COc1ccc(-c2ccc(C(=O)NC(C)C)c(Cl)c2)nn1`, which Potency is on record?
**A.** inconclusive: 89.1 µM [inhibitor, partial curve, poor fit]

**Q.** For `CCCNc1cc(N2CCC(CCC(=O)Nc3cccc(C)c3)CC2)ncn1`, which Potency is on record?
**A.** inactive

**Q.** For `NS(=O)(=O)c1ccsc1C(=O)N1CCCC2(CCNCC2)CC1`, which Potency is on record?
**A.** inactive

**Q.** With `O=C(Cn1nc2c(cc1=O)CCCCC2)NCCn1ccc2c(Cl)cccc21` as the compound, how does the Potency read?
**A.** inconclusive: 70.8 µM [inhibitor, single point]

**Q.** For `COc1ccc(-c2cnc([C@@H]3COCCN3Cc3ccccc3O)[nH]2)cc1`, which Potency is on record?
**A.** inconclusive: 112 µM [inhibitor, single point]

**Q.** Which Potency does the source give for `CCOC(=O)C1CCN(Cc2nnc3cc(-c4nc(-c5ccccc5)no4)ccn23)CC1` here?
**A.** inactive

**Q.** With `Cc1ccc(C)c(-c2cc3c(=O)n(CCNC(=O)Cc4ccsc4)ccn3n2)c1` as the compound, how does the Potency read?
**A.** inconclusive: 50.1 µM [inhibitor, partial curve, poor fit]

**Q.** Which Potency does the source give for `O=C1NC(=NC2CCCCC2)C2(CCCN(CC3CC3)C2)N1c1cc(F)cc(F)c1` (centres undefined) here?
**A.** active: 31.6 µM

**Q.** For `Cc1ccc(C(=O)N2CCCN(c3cc(-c4ccc(C)c(C)c4)[nH]n3)CC2)cc1C`, which Potency is on record?
**A.** inconclusive: 50.1 µM [inhibitor, partial curve, poor fit]

**Q.** With `Cc1cc2c(-c3cccc(OC(C)C)c3)nc(-c3c(C)noc3C)cc2[nH]1` as the compound, how does the Potency read?
**A.** active: 50.1 µM

**Q.** With `Cc1ccc(CNC[C@H]2O[C@H](Cc3cc(-c4ccc(F)cc4)on3)CC[C@@H]2O)cc1` as the compound, how does the Potency read?
**A.** active: 31.6 µM

**Q.** With `Cc1cccc(C(=O)N2C[C@@H](Oc3ccccc3)C[C@H]2C(=O)NC2CC2)c1` as the compound, how does the Potency read?
**A.** inconclusive: 63.1 µM [inhibitor, partial curve, poor fit]

**Q.** For `CN1CCC(CNc2nccc(C3(c4ccccc4Cl)CCNCC3)n2)C1` (centres undefined), which Potency is on record?
**A.** inactive

**Q.** With `Cc1cnc(CC2CCN(S(=O)(=O)c3ccc(C#N)cc3)C2)n1Cc1ccccc1` (centres undefined) as the compound, how does the Potency read?
**A.** inactive

**Q.** With `O=C1Nc2ccccc2CNC12CCN(Cc1c[nH]c3ccccc13)CC2` as the compound, how does the Potency read?
**A.** inconclusive: 70.8 µM [inhibitor, single point]

**Q.** Which Potency does the source give for `CNC(=O)c1cc(C2CC2)nc2onc(C3CCN(C(=O)OC)CC3)c12` here?
**A.** inactive

**Q.** With `C=CCN(CC=C)C(=O)C1CCCN(C2CCN(C3Cc4ccccc4C3)CC2)C1` (centres undefined) as the compound, how does the Potency read?
**A.** inactive

**Q.** Which Potency does the source give for `COc1ccc(CN2CCc3nc(C(=O)NCc4cccc(F)c4)oc3CC2)cc1` here?
**A.** inconclusive: 89.1 µM [inhibitor, partial curve]

**Q.** For `O=C(Cc1ccc(F)cc1)NC1CCN(Cc2cccc(-c3cccs3)c2)CC1`, which Potency is on record?
**A.** inactive

**Q.** Which Potency does the source give for `CC1CCC2(CC1)NC(=O)N(CC(=O)Nc1ccc3c(c1)OCCO3)C2=O` (centres undefined) here?
**A.** inconclusive: 70.8 µM [inhibitor, single point]

**Q.** For `CCCc1noc(-c2ccn3c(CNC(=O)c4ccc(C)c(C)c4)nnc3c2)n1`, which Potency is on record?
**A.** inactive

**Q.** Which Potency does the source give for `COc1ccccc1-c1nccc2c(=O)cc(-c3ccccn3)oc12` here?
**A.** inconclusive: 35.5 µM [inhibitor, partial curve, poor fit]

**Q.** For `Fc1ccccc1Nc1nc(-c2ccccc2)no1`, which Potency is on record?
**A.** inconclusive: 39.8 µM [inhibitor, partial curve]

**Q.** With `COc1ccc(-c2cc(N3CCN(C(=O)Cc4ccccc4)CC3)n[nH]2)cc1` as the compound, how does the Potency read?
**A.** inconclusive: 50.1 µM [inhibitor, partial curve, poor fit]

**Q.** Which Potency does the source give for `O=C(NC[C@H]1Cn2c(-c3ccccc3)cnc2CO1)c1ccccc1` here?
**A.** inconclusive: 56.2 µM [inhibitor, partial curve, poor fit]

**Q.** For `O=C(c1ccccc1Br)N1CCN(c2cc(-c3ccc(Cl)cc3)[nH]n2)CC1`, which Potency is on record?
**A.** active: 25.1 µM

**Q.** For `CS(=O)(=O)N1CCn2cc(C(=O)Nc3ccc(Cl)cc3Cl)nc2C1`, which Potency is on record?
**A.** inconclusive: 44.7 µM [inhibitor, partial curve, poor fit]

**Q.** For `CCCc1noc(-c2cccn3c(CNC(=O)c4cccc5[nH]ccc45)nnc23)n1`, which Potency is on record?
**A.** inconclusive: 70.8 µM [inhibitor, single point]

**Q.** With `Cc1ccc(CN2CCC3(CCC3N3CCOCC3)CC2)cc1C` (centres undefined) as the compound, how does the Potency read?
**A.** inactive

**Q.** With `COc1ccc(-c2nc(-c3c(C)noc3C)cc3cc(CO)oc23)cn1` as the compound, how does the Potency read?
**A.** inconclusive: 56.2 µM [inhibitor, partial curve, poor fit]

**Q.** For `O=C(c1ccccc1)N1CCn2c(nn(-c3ccncc3)c2=O)C1`, which Potency is on record?
**A.** inconclusive: 56.2 µM [inhibitor, partial curve, poor fit]

**Q.** Which Potency does the source give for `Cc1ccc(CN2CC(C(=O)NCCc3ccncc3)C3(CCOCC3)C2)s1` (centres undefined) here?
**A.** inactive

**Q.** For `COc1cc(C(=O)N2CCC(Cc3nc(-c4ccc(F)cc4)no3)CC2)cc(OC)c1OC`, which Potency is on record?
**A.** inconclusive: 35.5 µM [inhibitor, partial curve]

— PubChem BioAssay AID1345082 (National Center for Advancing Translational Sciences (NCATS), 2018)
